Results on 45 compounds are retold here after PMC4336329 (PLoS ONE, 2015).

The whole screen tested about 310,000 compounds, of which about 14,000 (4.5%) showed an effect of 50% or more. Effects have a minus sign here. This is one part of the list.
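Further: peak tail current of the secondary pulse compared with the same well before compound.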

For the assay, the target named is human ether-à-go-go-related gene (hERG) potassium channel (human, UniProt Q12809). The assay can be described thus: primary screen, population patch clamp on CHO cells stably expressing hERG.
Sequence of human ether-à-go-go-related gene (hERG) potassium channel (Q12809 whole entry, looked up): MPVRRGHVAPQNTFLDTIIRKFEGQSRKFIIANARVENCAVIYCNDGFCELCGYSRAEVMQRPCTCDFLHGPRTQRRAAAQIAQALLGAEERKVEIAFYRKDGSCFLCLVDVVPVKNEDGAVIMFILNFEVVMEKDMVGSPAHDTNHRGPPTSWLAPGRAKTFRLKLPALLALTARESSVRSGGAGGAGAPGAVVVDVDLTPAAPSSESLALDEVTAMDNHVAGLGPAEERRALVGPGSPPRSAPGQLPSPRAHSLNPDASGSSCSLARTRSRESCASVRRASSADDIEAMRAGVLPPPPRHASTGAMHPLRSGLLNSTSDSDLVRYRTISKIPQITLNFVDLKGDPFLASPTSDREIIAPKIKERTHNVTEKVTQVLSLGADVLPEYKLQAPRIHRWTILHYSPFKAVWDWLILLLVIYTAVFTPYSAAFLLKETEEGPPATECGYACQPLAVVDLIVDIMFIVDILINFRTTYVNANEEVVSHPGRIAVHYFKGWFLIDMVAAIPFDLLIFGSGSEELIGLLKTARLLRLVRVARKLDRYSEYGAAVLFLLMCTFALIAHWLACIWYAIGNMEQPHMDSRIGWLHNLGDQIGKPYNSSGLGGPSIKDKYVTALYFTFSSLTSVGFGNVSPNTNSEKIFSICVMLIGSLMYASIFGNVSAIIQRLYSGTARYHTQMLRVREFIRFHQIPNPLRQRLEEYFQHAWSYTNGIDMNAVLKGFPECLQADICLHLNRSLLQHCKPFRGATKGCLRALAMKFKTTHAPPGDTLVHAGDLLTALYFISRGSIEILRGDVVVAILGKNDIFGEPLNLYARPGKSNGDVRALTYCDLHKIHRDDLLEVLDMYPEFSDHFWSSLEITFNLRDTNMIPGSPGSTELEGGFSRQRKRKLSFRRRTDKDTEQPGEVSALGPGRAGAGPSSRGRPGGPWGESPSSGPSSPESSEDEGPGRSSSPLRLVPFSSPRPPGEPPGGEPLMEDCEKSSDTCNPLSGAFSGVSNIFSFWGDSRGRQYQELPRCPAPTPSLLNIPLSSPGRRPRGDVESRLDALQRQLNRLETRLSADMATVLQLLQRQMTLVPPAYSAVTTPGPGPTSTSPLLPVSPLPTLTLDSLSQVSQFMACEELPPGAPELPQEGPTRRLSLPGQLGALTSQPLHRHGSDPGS
For `CCCCCC(=O)Nc1sc(C)c(C)c1C#N`, the “hERG current change (%, negative = inhibition) at 10uM” value was -1.66%.
For `Cc1ccc(CNS(=O)(=O)c2c(C(=O)N3CCCCC3)c(C)n(C)c2C)cc1` the value was 1.58%.
For `CSc1ncccc1C(=O)NNc1cc(Cl)ccc1Cl` the value was 8.87%; for `Cc1cc(NC(=O)CSc2ncnc3c2cnn3-c2cccc(Cl)c2)no1`, 14.3%; for `C=CCNc1ncnc2c1[nH]c1ccc(Cl)cc12`, -7.82%.
As for `Cc1c(C#N)c(NC(=O)CCl)n(Cc2ccccc2)c1C`, the “hERG current change (%, negative = inhibition) at 10uM” value was found to be 31.1%.
The same measure for `Cc1ccc(-n2ncc3c(=O)[nH]c(SCC(=O)N4CCOCC4)nc32)cc1`: 8.98%; for `COCCSc1ccccc1C(=O)Nc1ccc(Br)cc1`: -18.6%; for `N#Cc1ccc(S(=O)(=O)NC2CCCCNC2=O)cc1` (stereo not drawn): 15%.
The same measure for `Cc1ccc2c(c1)NC(=O)C(CC(=O)NCCN(C)C)O2` (stereo not drawn): -2.42%; for `COc1ccc(C(=O)N/N=c2\oc3ccccc3cc2C(N)=O)cc1`: -6.68%.
Consider `CC(C(=O)OCC(=O)Nc1cccc(S(=O)(=O)N2CCOCC2)c1)N1C(=O)c2ccccc2C1=O` (stereo not drawn), for which the “hERG current change (%, negative = inhibition) at 10uM” value was -58%.
In the case of `Cc1ccc(C(=O)O)cc1NC(=S)NC(=O)C(c1ccccc1)c1ccccc1`, the “hERG current change (%, negative = inhibition) at 10uM” value is on record as -7.38%.
Take `COc1cc(NC(=O)C2CCCCC2)c(OC)cc1NC(=O)CN1CCCCC1`: the “hERG current change (%, negative = inhibition) at 10uM” value is on record as -12%.
Take `Cc1cccc(N2C(=O)CSC23CCCCC3)c1`: the “hERG current change (%, negative = inhibition) at 10uM” value is 36.1%.
The same measure for `Cc1ccc(/C=C2\SC(=S)N(/N=C/c3cc([N+](=O)[O-])ccc3O)C2=O)o1`: 3.82%; for `CC(C)n1nc(C(=O)OCn2nnc3ccccc3c2=O)c2ccccc2c1=O`: 10.2%; for `NC(=S)N/N=C/c1ccc(-c2ccc([N+](=O)[O-])cc2)o1`: 37.1%.
The same measure for `Cc1cccc(NC(=O)CSc2ncnc3nc[nH]c23)c1`: 1.6%; for `COCCN1C(=O)CC(NNC(=O)c2ccc(S(=O)(=O)N3CCCC3)cc2)C1=O` (stereo not drawn): 10%; for `CCOc1ccc(OCC)c(S(=O)(=O)NCc2ccccc2)c1`: -10.1%.
The same measure for `COc1ccc(C(=O)N=C2SC3CS(=O)(=O)CC3N2c2ccc(N(C)C)cc2)cc1OC` (stereo not drawn): 4.58%; for `CC1CCN(S(=O)(=O)c2cnc[nH]2)CC1`: 19.9%.
Turning to `O=C(COc1ccccc1)Nc1nn[nH]n1`, the “hERG current change (%, negative = inhibition) at 10uM” value was 15.2%.
Regarding `COc1ccc(CN2CCCCCC2)cc1OC`, the “hERG current change (%, negative = inhibition) at 10uM” value was -18.5%.
In the case of `CSc1ccc(/C=C/C(=O)NC23CC4CC(CC(C4)C2)C3)cc1`, the “hERG current change (%, negative = inhibition) at 10uM” value is 14.6%.
The same measure for `Cc1n[nH]c(=S)n(/N=C/c2cccc([N+](=O)[O-])c2)c1=O`: 8.42%.
For `Cc1cc(N/N=C/c2ccccc2)nc(N)n1`, the “hERG current change (%, negative = inhibition) at 10uM” value is given as -14.5%.
For `CC1CC(C)CN(C(=O)C2CC(=O)N(c3ccc4c(c3)OCCO4)C2)C1` (stereo not drawn) the value was 9.34%.
For `CC(C)(C)S(=O)(=O)/C(C#N)=N/Nc1ccc(C#N)cc1` the value was 22.1%; for `O=C(N=Nc1ccc(NOC(=O)c2ccccc2Br)cc1)c1ccccc1O`, 16.3%; for `Cc1ccccc1N1CCN(CCCCN2C(=O)C3CCCN3C2=O)CC1.Cl.O` (stereo not drawn), -65.4%.
In the case of `N#Cc1ccccc1COC(=O)c1ccc2c(c1)OCO2`, the “hERG current change (%, negative = inhibition) at 10uM” value is reported as -16%.
As for `Cc1ccc(C)c(CSc2nnc(C)c(=O)n2N)c1`, the “hERG current change (%, negative = inhibition) at 10uM” value amounted to 6.34%.
Consider `Cc1c(/C(O)=C2/C(=O)C(=O)N(Cc3cccnc3)C2c2cccs2)cnn1-c1ccccc1` (stereo not drawn), for which the “hERG current change (%, negative = inhibition) at 10uM” value was determined as 13.8%.
For `C/C(=N\NC(=O)c1ccc(N2CCCC2=O)cc1)c1ccc(O)cc1O` the value was 13.5%; for `FC(F)Oc1ccc(NC(=S)NN2CCOCC2)cc1`, 14.9%.
In the case of `COc1cc2c(cc1OC)CN(S(=O)(=O)/C=C/c1ccccc1)CC2`, the “hERG current change (%, negative = inhibition) at 10uM” value is given as -9.37%.
For `Fc1ccccc1CCNCc1cccc2ccccc12` the value was -18.2%; for `COc1cccc(C(=O)NCCS(=O)(=O)NC2CCCC2)c1`, 12.5%; for `Cn1nnc2c[n+](CC(=O)c3ccc(Cl)cc3)cc(Br)c21.[Br-]`, -24.7%.
As to `CC(NC(=S)Nc1ccc(OC(F)F)cc1OC(F)F)C(C)(C)C` (stereo not drawn), the “hERG current change (%, negative = inhibition) at 10uM” value is -1.92%.
The same measure for `Cn1c(CN2CCOCC2)nnc1SCC(=O)NC1CCCCC1`: 17.7%; for `COc1ccc(CC(=O)Nc2ccc(/C(C)=N/NC(=O)c3cccc([N+](=O)[O-])c3)cc2)cc1`: 8.6%.
Take `CCOC(=O)c1c(C)n(C)c2ccc(O)c(CN3CCC(C)CC3)c12`: the “hERG current change (%, negative = inhibition) at 10uM” value is given as -23.2%.
